Assay results as given in publication PMC10726135.
Some of the results follow. At the low end of the ranking the order means little. The protein was read in a cell extract, so binding may be indirect.

biological target: T1, HNF4alpha2 (COS-7 nuclear extract) (UniProt P41235); test: protein-binding microarray; conditions: COS-7 nuclear extract on double-stranded Agilent 4x180k PBM; binding buffer, salt, pH and temperature not given; high values mean tight binding; double strand, one strand shown; sequences stand for … in …GCCTAGGGAGATTAGAGTATCGGTCGA
T1 sequence: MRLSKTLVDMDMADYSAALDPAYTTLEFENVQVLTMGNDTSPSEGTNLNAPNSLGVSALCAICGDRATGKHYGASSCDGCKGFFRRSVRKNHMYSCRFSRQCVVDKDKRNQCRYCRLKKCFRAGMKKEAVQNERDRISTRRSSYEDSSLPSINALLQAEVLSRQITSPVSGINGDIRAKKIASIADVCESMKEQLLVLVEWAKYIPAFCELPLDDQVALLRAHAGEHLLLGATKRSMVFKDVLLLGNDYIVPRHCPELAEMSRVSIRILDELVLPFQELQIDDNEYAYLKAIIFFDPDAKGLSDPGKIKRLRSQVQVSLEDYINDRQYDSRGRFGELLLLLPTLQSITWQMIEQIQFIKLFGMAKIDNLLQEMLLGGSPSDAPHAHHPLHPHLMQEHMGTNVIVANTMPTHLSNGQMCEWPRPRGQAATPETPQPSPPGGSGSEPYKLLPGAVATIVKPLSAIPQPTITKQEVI

Sequence | binding signal (log2 normalized intensity)
AACACTATCTTCTTTCAGTGTTGACCTTTG | 6.87
ATCCCCCACACCGAGATAGTAGAGATAGTG | 2.59
GAGCGCAAATGATCAAAGGTCGGTTTTAGG | 4.85
GTCAGTTGATAAACAGATAACTGGGGGCAA | 0.764
TCACAAATGGAGTTTGGTTTAAAGTTCAAG | 2.34
CATATTCCTTAGATAAAAAGCTTTTCTTCC | -1.16
TCTTTACACATCTGTTAGGAATGTCATGCA | 1.7
ACTTGTTATCACCTGCTGGAATGTTTCAAG | 1.05
GGGGGTGGAGAAGGAAGGGGAAGATGATAG | -1.03
GAGTTCAGTTATCATTTCTACAGGGTCAAG | 2.62
TCCGGCCTGAGGCAGGATCAGGGCCCCTTC | -1.08
AAAGAGAAAGTAAGTGCACAGCCAGAACTG | -1.15
GACCTCGGCGGAGCCTCCGGCCTGAGGCAG | -1.29
CTCAAGGAATCCTCCTAAGTAGCCAAGATT | -0.94
ACCAGGTAGGGCCCCCAGCCAGGCCCCAGG | 0.198
CTCTGCCTCGGCCACATTCCCCGACTCCTG | 1.42
ACAGATGGCCTCACTCGGTGTGAGTGGTCC | 0.654
ACCTCGATCCCTGGCTAAGGTCCTGTTTGT | 1.5
GGATTTCTTGGCTTCTCTTGGACCTCAATG | 2.13
GGGCCAGCTGTACAAATAAAGGATGAAGGA | -1.01
ATGCCCAAATGAATAATCCCCTCCTGGACT | 2.94
AGTTCCGAGTTCCCTCGATTATTTCAGCCA | -0.208
AGGGTACAAATTCCAGAGAGGGGCCTCCAT | 1.14
TAGACATAGGTTATAAACTTGTTTGGGATT | 0.53

Sequence | binding signal (log2 normalized intensity)
CAAGCCCAAAGCCCCCAGAGGTTCTAGCCC | 3.42
GATAAGCCAAGAATGTACTCTCCCCACCTG | 3.05
ACCATCTCCAACATGACCACCTGGTTTAAG | 0.189
GGAAGGAGTCATTATCTTTATTATCCCAGT | 1.84
GTGCCTCTTTGGTGAATTTTATGTCTTCTT | 1.96
TGTCTCTGTAAATAAATGTCATTTAAGACG | 0.744
GACCTTCAGATGCAGTCCAGAAGGTCAGGA | 3.44
CGGAAGTTGCAGTGAGCTAAGATTGGACTC | 4.36
TGGGACTCATTTATGGAGGAATTTGGACTT | 4.74
CTGCTGGACACCGAGGTCCTGGGGCGATGC | -1.06
TTGAGCTGCTAAACCAACACCAGCAACCGC | -1.01
ACTAAGTGCTTAGTATGTGCTAGGCATTTT | 1.27
TATTGAACCACCAGATAGAGCTTTTGAGGG | -0.806
CATCATAAACCCGATCCTTACTATTAGGTC | 0.213
GACCTGGAGCCAGGGCCTTTTCAAGGGAGT | -0.796
GATAATCTCAAAAGGGAATTTTGGACAAGG | -0.0756
CTTCAAGTGTGACCCTGAACCTACAGCCCC | 2.32
GGAGCTGGTGGAGCAAAAAGGCCGTTCAAA | -1.19
TGGCTTCTGACCTTTGGCATTGTGTTACGT | 4.74
TAACAGCGGCATTCCTGTCAAAATCTGATC | 0.468
CTTCTTCTGGAGCCTCAGTAAGTTTACTTC | 0.33
AGATAAAAAGCTTTTCTTCCCCCCTCCCTC | 5.26
CCAGGGGAGGTTATCTTGGGGCTAATGTCT | 0.639
TCACATTGGAGGAGGGGGCGGTTAAACATT | 0.28

Sequence | binding signal (log2 normalized intensity)
ATCTCCAGATAAGACTTTGGACTTTGGACC | 11.6
CCATTTGCTGCTCTAGATGAGGGGGAAAGG | -1.09
GGCCTGGACTCCAAGCCCCAAAAACTTGGA | -0.921
GTTCAAACTTTATTTGATGATGAAGCAACA | 0.841
GTGCTGGGGACAAAAGCTGAGTCCCTGCTT | -0.868
CATCAAAGCATTTGGAGATTGCCACCTTGG | -0.25
TTATCTGATAAGTCCATACCTAGTCTTATC | 0.62
CGCCCTTGGAATATCCTGCCTAACAGGAGT | -1.21
TGGTTTACTTATGTCTCCAGAAACCAACCT | -0.0542
GTTATCACAGGCTTGGAATGTTTCTGTATC | 0.785
TTGGGGTCCAAAGTCTTTGTTCCTAGCCAC | 3.51
GAATCTGTTCCACCTGATCAAGCAACTGGC | -1.09
ATGGAGAAGATAAGCAGATCTTTAGAGACA | -1.14
TTGTCAAAGATAGTTGTAGTTACAGCTCAT | -0.439
TGAAAGTCCACTTGTCTGGCCTTCCTGGCC | 0.953
GTCCGACTGCACACCGTCCAGAGGCTCCAA | -1.21
CCTGGGCTGTATGTTCTAACCATAGGAGGC | -1.1
AATGTGCCCAGATAAGAACTGCAAGGCTAG | -0.646
TCTTTCGCTGTAGAAAGTGGTTTCAAGGTG | 1.51
CCTTTGGAAGGTGGGGGAGGAGACAGCTAC | -1.15
ACTTCACTCAGTGGGGTGTCTGTGTGCCTC | 2.16
CATAAGCCTTGCTGAGGAATTTGGACTTCA | 4.37
ATCTCACATTCGTTAACATCAGCTGAGCAG | 0.269
TTTGTCAGCATCTTCACCGTAAAGCCACCC | 0.778

Sequence | binding signal (log2 normalized intensity)
TGGGAGGCAAAGGTTGCAGTGAGCTGTGAT | 1.31
AGTGTTTTATGTGTATTTACTTATTGATAA | 1.66
AGGCAGATATACCAGATAAGGCAGTGGTTT | 0.391
ACAGTCCCTCCTCCAGCATAGGCTAGGACC | -0.676
TAAGCGCTGCCCTGGTAAGTTCCACTGCAT | -1.1
ACCCACCTACATTGATATTCCATATCAGCT | -0.646
GAAATATCATTATCTTGATCAGAAAAGAAA | -0.572
TAGAATGTGCTGGATGTTTCCTTTGAACTC | 2.53
CCGCCCAGTGAAAACAGCCCTAACCAGGGG | -1.22
TCTTAAGCTAACATGTACAGTATTGCGTAA | -0.692
CCCGCAGTGAGGGACAAGGCTGTCCCCCAT | 1.6
TCATTCATATCACCTAGGTGGAATCTTATA | 1.42
GCCCCCCGCCCAGTGAAAACAGCCCTAACC | 3.74
CACCCCCATGCAAGTTCCCACAGAGCCCAC | 4.54
AGGGAATAAAGAACTCTAAGCAGCGAAGCT | -1.17
GCAAATCTCTTGGTCATGGAGGGAACAAAA | 0.66
AAAGGGGAAAAGGTCAAATACCAAAATGTG | 1.8
AGTACACACCTGCAACCTATTTCTTTTTGA | 0.113
CACAGCTGAATCCAAAGGTCAATGCCAGGA | 4.04
GCTGGCTATCAGTTGAGATTTATTCCCAGG | -1.15
GTACCTCCTTTCAGAACGTGTTTCCAGGCA | 1.26
